Test results taken from PubChem BioAssay AID903 (National Center for Advancing Translational Sciences (NCATS), 2007).
In all, about 55,000 compounds went through this assay and about 340 (0.62%) were called active. This list was built around the results that the source calls inconclusive (neither active nor inactive); the mix of calls is not that of the screen. Calls follow the shape of the dose curve; as a rule, active = well fitted cell-killing curve with a large enough effect; inconclusive = small, poorly fitted or top-dose-only effect; inactive = no such curve, though single readings can be large or run the other way. A potency beside an inconclusive call is a rough fit, not a confirmed value.

Assay: qHTS Screen for Compounds that Selectively Target Cancer Cells with p53 Mutations: Cytotoxicity of p53 Null Cells at the Permissive Temperature; also: nearly all actives have a fitted effect of over 55% in size
Details: H1299-neo p53 null cells, ATP luminescence, 24 h, 32C; series mostly up to 46.1 µM
Procedure, shortened: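 H1299-neo (p53-null) cells, 600/well, were pre-incubated overnight at 37C, then exposed to compounds at up to 46 uM for 24 hr at 32C. Viability was measured as ATP content by luminescence, and AC50 values came from Hill fits.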
Potency is read from the fitted curve at half-maximal effect; tags tell the direction and shape of the fitted curve.

Structure (SMILES) | Potency
Cc1ccc(N2C(=O)N(Cc3cccc(Cl)c3)c3ccccc3S2(=O)=O)cc1 | inactive
Cc1cc(C)c(NC(=O)Cn2c(=O)n(Cc3ccc(C(=O)NCc4ccco4)cc3)c(=O)c3sccc32)c(C)c1 | inconclusive: 31.6 µM [cytotoxic, single point]
CC(C)COc1ccc(-c2cc(C(=O)NN)[nH]n2)cc1 | inconclusive: 8.91 µM [cytotoxic, partial curve]
COc1ccc(C2CC(=O)N(CC(=O)Nc3cccc(C)c3C)c3ccccc3S2)cc1OC (configuration not stated) | inactive
COc1ccc(C)cc1Nc1nc(N)c2cc(OC)c(OC)cc2n1 | inconclusive: 12.6 µM [cytotoxic, partial curve]
CCCCOC(=O)c1ccc(Nc2nc3ccccc3c3nnc(C)n23)cc1 | inactive
CCC(=O)Nc1cccc(-c2cn3ccccc3n2)c1 | inconclusive: 11.2 µM [cytotoxic, single point]
COc1cc(NC(=O)c2cc(-c3ccc(Cl)c(Cl)c3)on2)cc(OC)c1OC | inconclusive: 31.6 µM [cytotoxic, single point]
N#Cc1ccc(OC(=O)c2cc(-c3ccc4c(c3)OCCO4)on2)cc1 | inconclusive: 12.6 µM [cytotoxic, partial curve]
Cc1nc2c(C(=O)NCCc3ccc(Cl)cc3)c[nH]n2c(=O)c1Cc1ccccc1F | inconclusive: 25.1 µM [cytotoxic, single point]
COc1cc(NC(=O)c2cccc(F)c2)ccc1NC(=O)c1cc2ccccc2o1 | inactive
COc1cccc(CNC(=O)c2ccc3c(c2)nc2n3CCCCC2)c1OC | inconclusive: 10 µM [cytotoxic, partial curve]
O=C(N/N=C\c1cc(Cl)ccc1O)c1ccc(S(=O)(=O)N2CCCCC2)cc1 | active: 7.08 µM
Cc1cccc(CCNC(=O)c2ccc3c(c2)nc2n3CCOC2)c1 | inconclusive: 10 µM [cytotoxic, partial curve]
CC1CCCCN1S(=O)(=O)c1ccc(F)c(C(=O)Nc2ccccc2C(F)(F)F)c1 (configuration not stated) | inconclusive: 6.31 µM [cytotoxic, single point]
COc1ccc(NC(=O)C(=O)NCCc2csc(-c3ccc(Cl)cc3)n2)cc1 | inactive
COc1ccc(-c2c(C)nn3c(C(F)(F)F)cc(-c4ccc(Br)cc4)nc23)cc1 | inactive
CC1CCCN(c2csc3ccccc3c2=O)C1 (configuration not stated) | inconclusive: 25.1 µM [cytotoxic, single point]
CCc1ccc(NC(=O)C(=O)NCC(c2cccnc2)N2CCN(C)CC2)cc1 (configuration not stated) | inconclusive: 31.6 µM [cytotoxic, single point]
Cc1ccc(-n2ccnc(NCCc3ccc(S(N)(=O)=O)cc3)c2=O)cc1C | inactive
COc1ccccc1NC(=O)C1CCN(S(=O)(=O)c2ccc3c(c2)oc(=O)n3C)CC1 | inconclusive: 35.5 µM [cytotoxic, single point]
CCC(CO)Nc1ncnc2c1cnn2-c1ccc(C)cc1 (configuration not stated) | active: 15.8 µM
CCC1CCCCN1C(=O)c1nn(-c2ccc(C)cc2)c(=O)c2c1c1ccccc1n2C (configuration not stated) | inactive

Structure (SMILES) | Potency
CCc1ccc(C2=C(C)C(N3CCC(C(=O)Nc4ccc(F)cc4)CC3)=NS2(=O)=O)cc1 | inconclusive: 31.6 µM [cytotoxic, single point]
COc1ccc(C(=O)Nc2ccccc2)cc1S(=O)(=O)Nc1ccc(Br)cc1 | inactive
CN(C)c1ccc(C(CNC(=O)c2ccccc2Cl)N2CCc3ccccc32)cc1 (configuration not stated) | inactive
CCOCC(=O)Nc1ccc(-c2cn3c(C)csc3n2)cc1 | inconclusive: 25.1 µM [cytotoxic, single point]
O=c1c2sc3ccccc3c2n(Cc2ccccc2F)c(=O)n1-c1ccccc1Cl | inconclusive: 35.5 µM [cytotoxic, single point]
COc1cccc(-n2ccnc2SCC(=O)Nc2nc3ccc(C)cc3s2)c1 | inconclusive: 1 µM [cytotoxic, single point]
COc1cccc(NC(=O)CSc2nnc3[nH]c(=O)cc(-c4ccccc4)n23)c1 | inconclusive: 1.26 µM [cytotoxic, full curve]
CCOc1ccc(N(CC)C(=O)c2cc3c(s2)-c2ccc(Cl)cc2SC3)cc1 | inactive
COc1cc(O)ccc1-c1nc2ccc(Br)cn2c1Nc1ccccc1C | inconclusive: 25.1 µM [cytotoxic, single point]
Oc1ccc(Nc2nc(-c3ccc(Cl)cc3)nc3ccccc23)cc1 | inconclusive: 31.6 µM [cytotoxic, single point]
CCOCCCn1c(=N)c(C(=O)NC2CCCC2)cc2c(=O)n3cccc(C)c3nc21 | inactive
CC(=O)c1ccc(NC(=O)c2ccc(CN3C(=O)CCn4nc(C)cc43)cc2)cc1 | inconclusive: 3.16 µM [cytotoxic, partial curve]
COC(=O)c1c(SCC(=O)Nc2ccccc2OC)[nH]c2ccccc2c1=O | inconclusive: 5.01 µM [cytotoxic, partial curve]
CN(C)c1cccc(C(=O)Nc2ccc(-c3nc4ccccc4s3)cc2)c1 | inconclusive: 12.6 µM [cytotoxic, partial curve]
COc1ccc(-c2nc(SCC(=O)Nc3cccc(C(C)=O)c3)n[nH]2)cc1 | inconclusive: 10 µM [cytotoxic, partial curve]
COc1ccc(C(=O)c2oc3ccccc3c2NC(=O)c2ccc(F)cc2)cc1 | inactive
O=C(CCc1cn(Cc2ccccc2F)c2ccccc12)NCc1ccc(Cl)cc1 | inactive
CCCSCCCNC(=O)CN1C(=O)COc2ccc(S(=O)(=O)N3CCC(C)CC3)cc21 | inconclusive: 5.01 µM [cytotoxic, partial curve, poor fit]
O=C(NCC(c1ccccc1)c1ccccc1)c1nn(-c2ccccc2Cl)nc1CO | inconclusive: 31.6 µM [cytotoxic, single point]
COc1ccc(Nc2cc(C)c3cc(NC(=O)c4cc(OC)cc(OC)c4)ccc3n2)cc1 | inactive
COc1ccccc1NC(CC(=O)c1ccccc1)C(=O)OCC(=O)c1ccc(C)cc1 (configuration not stated) | inconclusive: 35.5 µM [cytotoxic, partial curve, poor fit]
COc1ccc(CCN2C(=O)N(c3ccccc3)C(=O)C2CC(=O)Nc2ccccc2)cc1 (configuration not stated) | inconclusive: 4.47 µM [cytotoxic, single point]
Cc1ccccc1C(=O)Nc1ccc(C(=O)OCc2cc(=O)n3nc(C(C)C)sc3n2)cc1 | inconclusive: 4.47 µM [cytotoxic, full curve]

Structure (SMILES) | Potency
COc1ccc(-n2ncc3c(N4CCCCC4)ncnc32)cc1 | active: 2.51 µM
COc1ccc2c(c1)cc1c(=O)n(CC(=O)NC(C)C)nc(C)n12 | inconclusive: 0.0316 µM [cytotoxic, full curve, poor fit]
O=C(CCS(=O)(=O)c1nc(-c2cccs2)cc(C(F)(F)F)n1)Nc1cc(Br)ccc1O | inactive
Cc1ccc(NC(=O)c2oc3ccccc3c2NC(=O)c2ccc(F)c(F)c2)cc1 | inconclusive: 5.62 µM [cytotoxic, single point]
Cc1ccc(-n2ncc(C(=O)NCCN3CCCC3)c2C2CCN(C(=O)OC(C)(C)C)CC2)cc1 | inactive
COc1ccc(NC(=O)CSc2oc(-c3ccc(F)cc3)nc2S(=O)(=O)c2ccc(C)cc2)c(OC)c1 | inconclusive: 20 µM [cytotoxic, single point]
O=C(Nc1ccccc1C(F)(F)F)c1cc(-c2ccc3c(c2)OCCO3)on1 | inconclusive: 12.6 µM [cytotoxic, partial curve]
COc1ccccc1NC(=O)CSc1nnc(NC(=O)NC2CCCCC2)s1 | inconclusive: 3.98 µM [cytotoxic, full curve]
Cc1cc(Br)ccc1NC(=O)C1CCCN(S(=O)(=O)c2cccc3nonc23)C1 (configuration not stated) | inactive
O=C(NCCN1CCCCC1)c1ccc(Cn2c(SCc3ccc(F)cc3)nc3cccnc32)cc1 | active: 15.8 µM
COc1ccc(Cl)cc1NC(=O)Cn1nnc(C(=O)NCc2ccc3c(c2)OCO3)c1N | inconclusive: 35.5 µM [cytotoxic, single point]
COC(=O)c1c(-c2ccc(Cl)cc2)noc1N1CCN(c2cccc(C)c2C)CC1 | inactive
Cc1ccc(CSc2nc3ccncc3n2Cc2nc(-c3ccc(Cl)cc3)oc2C)cc1 | inconclusive: 12.6 µM [cytotoxic, partial curve]
Cc1ccc2nc(-c3ccc(NC(=O)CN4C(=O)c5ccccc5C4=O)cc3)sc2c1 | active: 22.4 µM
CCOC(=O)c1ccc(NC(=O)c2nsc3ccccc23)cc1 | active: 7.94 µM
COc1ccc(OC)c(S(=O)(=O)Nc2ccc3[nH]c(=O)[nH]c3c2)c1 | inconclusive: 20 µM [cytotoxic, partial curve]
COC(=O)c1c(-c2ccccc2)csc1NC(=O)c1c(-c2ccccc2)noc1C | inconclusive: 5.01 µM [cytotoxic, partial curve]
Cc1cc(C)n(-c2nc(Nc3ccccc3C(F)(F)F)nc(-n3nc(C)cc3C)n2)n1 | inconclusive: 35.5 µM [cytotoxic, single point]
Cc1cc(C)cc(NC(=O)Cn2c(-c3cncs3)nc3ccccc32)c1 | inconclusive: 31.6 µM [cytotoxic, single point]
Cc1ccc(Cl)cc1NC(=O)C1CCN(c2nnc(C)c3c(C)n(-c4ccccc4)nc23)CC1 | inconclusive: 31.6 µM [cytotoxic, single point]
CN(C)c1ccc(CNC(=O)c2ccc(Cn3c(SCc4ccccc4)nc4cccnc43)cc2)cc1 | inconclusive: 22.4 µM [cytotoxic, partial curve, poor fit]
